± gives the standard error. Variants at the background level are over-represented here.
B1: glmS ribozyme (parent)
chain: AUAAAAGCGCCAGAACUACAGAAAUGUAGUUGACGAGGAGGAGGUUUAUCGAAUUUUCGGCGGAUGCCUCCAAA

How the values were obtained:
Settings in all cases: with glucosamine-6-phosphate
[1] = variants of: B1; experiment: self-cleavage kobs at 40 uM GlcN6P; higher = faster cleavage; RNA array
Method in brief: (§1)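 Over ~14 h at 37 °C, tiles were imaged as glucosamine-6-phosphate (40 μM to 10 mM) in HEPES/KCl/Mg(OAc)2 buffer flowed across sequenced MiSeq chips. The chips carried barcoded ribozyme variants transcribed in situ by E. coli RNA polymerase and tracked with a hybridised Cy3 probe. After normalisation to baseline and to non-cleaving reference variants, one- or two-exponential decay fits of per-tile medians gave kobs. kcat and KM followed from weighted Michaelis–Menten fits across concentrations.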

[2] = variants of: B1; experiment: self-cleavage kobs at 640 uM GlcN6P; higher = faster cleavage; RNA array
Method in brief: as §1

[3] = variants of: B1; experiment: self-cleavage kobs at 2500 uM GlcN6P; higher = faster cleavage; RNA array
Method in brief: as §1

[4] = variants of: B1; experiment: self-cleavage kobs at 10000 uM GlcN6P; higher = faster cleavage; RNA array
Method in brief: as §1

[5] = variants of: B1; experiment: self-cleavage kobs at 160 uM GlcN6P; higher = faster cleavage; RNA array
Method in brief: as §1

Variant	self-cleavage kobs at 40 uM GlcN6P [1] [s⁻¹]	self-cleavage kobs at 640 uM GlcN6P [2] [s⁻¹]	self-cleavage kobs at 2500 uM GlcN6P [3] [s⁻¹]	self-cleavage kobs at 10000 uM GlcN6P [4] [s⁻¹]	self-cleavage kobs at 160 uM GlcN6P [5] [s⁻¹]
G44A G60U	< 1e-05	< 1e-05	< 1e-05	< 1e-05	–
G40U C61A C67A	< 1e-05	< 1e-05	< 1e-05	–	–
G44A C58A C70U	< 1e-05	< 1e-05	–	–	< 1e-05
G38C G62C	< 1e-05	< 1e-05	< 1e-05	< 1e-05	< 1e-05
G43A A52C	< 1e-05	–	< 1e-05	–	–
A42C C61U C71A	< 1e-05	–	–	–	–
A39C U55A G59C G66C	< 1e-05	< 1e-05	–	< 1e-05	–
A42U A48U	< 1e-05	< 1e-05	< 1e-05	–	–
G38U G41A C70U	< 1e-05	–	–	–	–
G41C U47A C50U	< 1e-05	–	–	< 1e-05	–
A42C G43U A48G G62C C67A C70G	< 1e-05	< 1e-05	< 1e-05	–	–
A39C U49A	< 1e-05	–	–	< 1e-05	< 1e-05
U45C A48G U49A	< 1e-05	–	–	–	–
A42G G66A U69A	0.000356 ± 0.0001	–	–	–	–
G43U C70A	< 1e-05	< 1e-05	< 1e-05	< 1e-05	< 1e-05
G44U U57C	< 1e-05	< 1e-05	–	–	–
G44U U57A	< 1e-05	< 1e-05	–	< 1e-05	< 1e-05
A39U G66U C67U	3.54e-05 ± 1.2e-05	–	–	–	–
A42C G59A	< 1e-05	–	< 1e-05	–	< 1e-05
A42C G59U	< 1e-05	< 1e-05	< 1e-05	–	–
A42C U54C	< 1e-05	< 1e-05	–	–	< 1e-05
G38C A53C	< 1e-05	–	–	–	< 1e-05
A39C C58G	< 1e-05	–	–	–	–
G44A C67U	0.000707 ± 7e-05	–	–	–	–

Variant	self-cleavage kobs at 40 uM GlcN6P [1] [s⁻¹]	self-cleavage kobs at 640 uM GlcN6P [2] [s⁻¹]	self-cleavage kobs at 2500 uM GlcN6P [3] [s⁻¹]	self-cleavage kobs at 10000 uM GlcN6P [4] [s⁻¹]	self-cleavage kobs at 160 uM GlcN6P [5] [s⁻¹]
G38C G63U	< 1e-05	–	–	–	–
G44C G62U	< 1e-05	< 1e-05	< 1e-05	< 1e-05	< 1e-05
G38C A39C G43U U57G C71U	< 1e-05	< 1e-05	< 1e-05	< 1e-05	–
G44C G51A A53C	< 1e-05	–	–	–	–
G40A G44A C70U	< 1e-05	–	–	< 1e-05	–
G38U G41U C61G	< 1e-05	–	–	< 1e-05	–
G38U A42C	< 1e-05	–	–	< 1e-05	< 1e-05
G41U G44U	< 1e-05	< 1e-05	< 1e-05	< 1e-05	< 1e-05
G38A G41A C68A	< 1e-05	–	–	–	–
G41C G51A	< 1e-05	–	–	< 1e-05	–
A39U C58U	< 1e-05	–	–	–	–
G38U G43C A64U	< 1e-05	–	–	–	–
G44C G63C	< 1e-05	< 1e-05	< 1e-05	< 1e-05	–
A42G G51C	< 1e-05	< 1e-05	–	< 1e-05	–
G37U G51U C67U	< 1e-05	–	–	< 1e-05	–
G40C G44C	< 1e-05	–	–	–	–
A42G G43A	< 1e-05	5.32e-05 ± 1.5e-05	8.7e-05 ± 2.3e-05	0.000143 ± 2.8e-05	–
G41A U45G	2.84e-05 ± 1.3e-05	0.000144 ± 2.4e-05	0.000565 ± 0.0001	0.000304 ± 5.2e-05	3e-05 ± 1.3e-05
G41A U57A G63U	< 1e-05	–	–	< 1e-05	–
G41U G62A	< 1e-05	< 1e-05	< 1e-05	< 1e-05	–
G38U G41A	< 1e-05	< 1e-05	< 1e-05	< 1e-05	< 1e-05
G44A C58A	< 1e-05	< 1e-05	–	–	< 1e-05
G38U U46G G60C	< 1e-05	< 1e-05	< 1e-05	–	< 1e-05
G37U G59A	< 1e-05	< 1e-05	–	–	–

Variant	self-cleavage kobs at 40 uM GlcN6P [1] [s⁻¹]	self-cleavage kobs at 640 uM GlcN6P [2] [s⁻¹]	self-cleavage kobs at 2500 uM GlcN6P [3] [s⁻¹]	self-cleavage kobs at 10000 uM GlcN6P [4] [s⁻¹]	self-cleavage kobs at 160 uM GlcN6P [5] [s⁻¹]
G37U G59U	< 1e-05	< 1e-05	–	–	–
G43U U47C	< 1e-05	< 1e-05	< 1e-05	< 1e-05	–
G37U U45C	< 1e-05	< 1e-05	< 1e-05	< 1e-05	< 1e-05
U45C G60C	< 1e-05	< 1e-05	< 1e-05	< 1e-05	< 1e-05
G40A A53G	0.000243 ± 5.3e-05	–	–	–	–
A42G U55A G63C	< 1e-05	–	–	–	–
G41A A42U G59C C67A	< 1e-05	–	–	< 1e-05	–
G44C C50G U54C	< 1e-05	–	–	–	–
G41C C68U	< 1e-05	< 1e-05	–	–	–
G41A G44C	< 1e-05	< 1e-05	–	–	–
G43A U47A	< 1e-05	–	–	–	< 1e-05
G43U G51C	< 1e-05	< 1e-05	< 1e-05	< 1e-05	–
A39U U49A	< 1e-05	–	–	–	–
A42C A48G C61G	< 1e-05	–	–	< 1e-05	–
G40U G44C	< 1e-05	< 1e-05	–	–	< 1e-05
G38A G41U C68A	< 1e-05	< 1e-05	–	< 1e-05	< 1e-05
G40C U45A	7.94e-05 ± 9.2e-06	0.000631 ± 7.8e-05	0.00123 ± 0.00018	0.00131 ± 0.00019	0.000183 ± 3.5e-05
G43U U49A	< 1e-05	–	–	< 1e-05	–
G41A C50U G51C	< 1e-05	< 1e-05	< 1e-05	< 1e-05	–
G41A C70G	4.43e-05 ± 8e-06	0.000156 ± 1.6e-05	0.000332 ± 4e-05	–	6.45e-05 ± 1.1e-05
G41C G43C	< 1e-05	< 1e-05	–	< 1e-05	< 1e-05
A42U G63C	< 1e-05	< 1e-05	< 1e-05	< 1e-05	< 1e-05
G40U U47G	4.04e-05 ± 1e-05	0.000262 ± 5.2e-05	0.000699 ± 0.00013	0.000681 ± 0.00011	0.000115 ± 2.6e-05
G40C U65G	< 1e-05	9.16e-05 ± 3.6e-05	0.00036 ± 0.00012	0.000854 ± 0.00025	–

Variant	self-cleavage kobs at 40 uM GlcN6P [1] [s⁻¹]	self-cleavage kobs at 640 uM GlcN6P [2] [s⁻¹]	self-cleavage kobs at 2500 uM GlcN6P [3] [s⁻¹]	self-cleavage kobs at 10000 uM GlcN6P [4] [s⁻¹]	self-cleavage kobs at 160 uM GlcN6P [5] [s⁻¹]
U45A C61G	< 1e-05	< 1e-05	< 1e-05	< 1e-05	< 1e-05
G41A U49C U56A	< 1e-05	–	–	–	–
A42G C61A	< 1e-05	–	< 1e-05	< 1e-05	–
G41C U69G	< 1e-05	< 1e-05	–	< 1e-05	–
G44U U47G	< 1e-05	< 1e-05	–	–	< 1e-05
G41U G60A	< 1e-05	< 1e-05	–	–	–
G38U A48G G51U	< 1e-05	–	–	–	–
G41A A52U G59A	< 1e-05	< 1e-05	< 1e-05	–	< 1e-05
A39U U69C	0.000261 ± 7.1e-05	–	0.0075 ± 0.0032	0.0107 ± 0.0039	–
G44C U49G C58U	< 1e-05	–	–	< 1e-05	–
G44U U69A	< 1e-05	< 1e-05	< 1e-05	< 1e-05	< 1e-05
G44U G63C	< 1e-05	< 1e-05	< 1e-05	< 1e-05	< 1e-05
G44U G63A	< 1e-05	< 1e-05	< 1e-05	< 1e-05	< 1e-05
A42G G60U	< 1e-05	< 1e-05	< 1e-05	–	< 1e-05
A42G G60C	< 1e-05	–	–	< 1e-05	–
G37U A53U U55A	< 1e-05	–	–	–	–
G38U U45G	< 1e-05	–	–	–	–
G41A A52C C58A	< 1e-05	–	–	–	–
U45C G63A A64G	< 1e-05	–	–	–	–
G37U U45A A52C C61A	< 1e-05	–	–	–	–
G43U G51A U57G	< 1e-05	–	< 1e-05	< 1e-05	–
G41A G43U A53G C71G	< 1e-05	–	< 1e-05	–	–
A42U C71G	< 1e-05	–	–	–	–
